About 6,400 (1.6%) of roughly 410,000 compounds were called active. Inconclusive results, whose numbers are uncertain, are shown with a selection of clear calls. Calls come from the whole dose curve; as a rule, active = well fitted inhibition curve with a large enough effect; inconclusive = small, poorly fitted or top-dose-only effect; inactive = no such curve, though single readings can be large or run the other way. Potencies beside an inconclusive call are fits to weak or partial responses and may not hold up.
Target: Glucagon-like peptide 1 receptor (Homo sapiens) (UniProt P43220)
Test: qHTS of GLP-1 Receptor Inverse Agonists (Inhibition Mode); note: nearly all actives have a fitted effect of over 55% in size
Settings: HEK293 GLP-1R CRE-luciferase, luminescence, 24 h, GLP-1R form is constitutively active; activity change, negative = inhibition: at 38.3 µM (top of the series) unless noted
Method in brief: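 Cells are plated, allowed 12 hours at 37 deg C, then treated with compounds for 24 hr before luciferase detection reagent is added and luminescence is read after 12 min at room temperature. The HEK293 line carries constitutively active GLP-1R with a cAMP-responsive reporter.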
% is set by controls: 0 for no effect and ±100 for the full control effect; potency is the fitted concentration of half-maximal effect; tags give direction and shape of the fitted curve.

Sequence of UniProt P43220 (P43220 whole entry, looked up): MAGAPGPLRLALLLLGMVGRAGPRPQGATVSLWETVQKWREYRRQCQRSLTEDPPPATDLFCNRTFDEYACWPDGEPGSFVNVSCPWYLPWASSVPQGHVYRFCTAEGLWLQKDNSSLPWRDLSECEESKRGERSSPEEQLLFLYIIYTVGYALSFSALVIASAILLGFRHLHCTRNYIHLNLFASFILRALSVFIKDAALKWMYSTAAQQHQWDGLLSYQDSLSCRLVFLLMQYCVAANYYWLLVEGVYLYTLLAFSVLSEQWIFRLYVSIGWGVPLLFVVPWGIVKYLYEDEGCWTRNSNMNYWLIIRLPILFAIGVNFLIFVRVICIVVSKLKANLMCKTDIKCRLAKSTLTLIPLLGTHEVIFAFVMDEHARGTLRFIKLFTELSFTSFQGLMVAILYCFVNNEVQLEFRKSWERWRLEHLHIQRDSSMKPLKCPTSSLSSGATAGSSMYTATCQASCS

Potency, inconclusive:
O=S(=O)(c1ccccc1)N1CCN=C1SCc1c(F)cccc1Cl 28.2 µM [inhibitor, single point]
Cc1ccc(S(=O)(=O)N2[C@@H](c3ccc(F)cc3)C(C(=O)O)=CC[C@H]2c2ccc(Cl)cc2)cc1 11.2 µM [inhibitor, partial curve, poor fit]
COc1ccc2cc(CNCCOCCOCCNCc3ccc4cc(OC)ccc4c3)ccc2c1 1.78 µM [inhibitor, full curve, poor fit]
CSc1ccccc1C(=O)N1CCc2ccc(NC(=O)c3ccccn3)cc2C1 10 µM [inhibitor, single point]
Cn1nnnc1SCCNCc1ccccc1OCc1ccc(Cl)cc1 11.2 µM [inhibitor, partial curve, poor fit]
COc1cc(CN2CCCC(C)C2)ccc1OCc1ccccc1 (stereo not drawn) 3.55 µM [inhibitor, single point]
CCC(C)Sc1cccc(-c2nc3ccc(Cl)cn3c2NCc2ccccc2)c1 (stereo not drawn) 3.98 µM [inhibitor, full curve, poor fit]
O=C(c1cc(C2CC2)nn1-c1ccccc1)N1CCN(c2ccccn2)CC1 4.47 µM [inhibitor, partial curve, poor fit]
COc1ccc(-c2c(-c3ccc(OCC(=O)NN)cc3O)n[nH]c2C)cc1 31.6 µM [inhibitor, single point]
COc1cccc(-c2sc3ccc(OC)cc3c2-c2ccc(OCCN3CCCC3)cc2)c1 28.2 µM [inhibitor, single point]
Cc1nc2c(C(=O)NCCc3ccc(Cl)cc3)c[nH]n2c(=O)c1Cc1ccccc1F 28.2 µM [inhibitor, single point]
CCc1nc2c(sc3nc4c(cc32)COC(C)(C)C4)c(=O)n1Cc1ccco1 5.62 µM [inhibitor, partial curve, poor fit]
CCCSc1ccc([C@H]2N[C@@](CC(C)C)(C(=O)OC)[C@H]3C(=O)N(CC)C(=O)[C@@H]23)cc1 11.2 µM [inhibitor, partial curve, poor fit]
CC(C)[C@@H]1Cc2[nH][nH]c(=O)c2[C@H](C(C)C)O1 22.4 µM [inhibitor, single point]
COCCCNC(=S)NCCNc1nc2cc(C)cc(C)c2cc1C#N 1.26 µM [inhibitor, partial curve, poor fit]
CCOC(=O)[C@]12CCCC=C1N(Cc1ccc3c(c1)OCO3)C(=O)[C@H](CC(=O)NCCCCc1ccccc1)C2 31.6 µM [inhibitor, single point]
CC[n+]1c(/C=C2\C=C(C)CC(C)(C)C2)sc2ccccc21 22.4 µM [inhibitor, single point]
COc1cc(CNc2ncnc3c2ncn3[C@H]2CN(Cc3cccc(C(F)(F)F)c3)C[C@@H](COC(C)=O)O2)cc(OC)c1OC 28.2 µM [inhibitor, single point]
O=C(Nc1ccc2c(c1)OCO2)C(=O)c1c[nH]c2ccccc12 2 µM [inhibitor, full curve, poor fit]
Cc1cc(C)cc(-n2ccnc2SCC(=O)Nc2ccc3c(c2)OCO3)c1 11.2 µM [inhibitor, single point]
COC(=O)[C@]12CCCCC=C1N(CCC1=CCCCC1)C(=O)[C@H](CC(=O)NCC13CC4CC(CC(C4)C1)C3)C2 28.2 µM [inhibitor, single point]
Nc1nc(NCc2ccco2)nc(N2CCCCCC2)c1[N+](=O)[O-] 20 µM [inhibitor, single point]
Cc1cc(N2CCN(C)CC2)nc2ccc(NC(=S)NCCN3CCc4ccccc4C3)cc12 2.24 µM [inhibitor, full curve, poor fit]
COc1ccc(NC2=Nc3cccc4cccc2c34)cc1 22.4 µM [inhibitor, single point]
CCN(CC)CCNC(=O)c1ccc(Sc2ccc(C)cc2)c(NC(C)=O)c1 22.4 µM [inhibitor, single point]
Cc1ccc(-c2cc(C(=O)NC3=NCCS3)c3ccccc3n2)cc1C 28.2 µM [inhibitor, single point]
COc1cc(CNc2ncn[nH]2)ccc1OCc1cccc(C)c1 1 µM [inhibitor, full curve, poor fit]
O=C(c1cc2c(s1)CCCC2)N1CCN(S(=O)(=O)c2ccccc2)CC1 10 µM [inhibitor, partial curve, poor fit]
NCCCNc1ccc([N+](=O)[O-])cc1C(F)(F)F 28.2 µM [inhibitor, single point]
O=c1/c(=C\c2cccc(O)c2)sc2nc(-c3ccccc3)c(-c3ccccc3)n12 2.82 µM [inhibitor, full curve, poor fit]
CCOc1ccc2[nH]c3c(N4CCN(c5ccccn5)CC4)ncnc3c2c1 28.2 µM [inhibitor, single point]
CCc1ccc(Sc2cc(C(=O)NCCCOC(C)C)c3ccccc3n2)cc1 10 µM [inhibitor, single point]
COc1ccc(OC)c(Nc2cc(C)nc3ccccc23)c1 31.6 µM [inhibitor, single point]
O=C(COC(=O)/C=C/c1ccc(Cl)cc1)Nc1cccc(S(=O)(=O)NC2=NCCCCC2)c1 31.6 µM [inhibitor, single point]
COc1ccccc1NC(=O)CC1S/C(=N/N=C(\C)C2CCCCC2)NC1=O (stereo not drawn) 31.6 µM [inhibitor, partial curve, poor fit]
Cc1cc(C(=O)Nc2ccc3ccccc3c2)c(C)o1 28.2 µM [inhibitor, single point]
CCCC(C(=O)Nc1ccc(S(=O)(=O)N2CCCC2)cc1)c1ccccc1 (stereo not drawn) 14.1 µM [inhibitor, single point]
CC(C)Cc1ccc(-c2cc3nc(NCCCn4ccnc4)ccn3n2)cc1 14.1 µM [inhibitor, partial curve, poor fit]
CCCc1ccc(C(O)c2ncc(-c3ccccc3)[nH]2)cc1 (stereo not drawn) 31.6 µM [inhibitor, single point]
Cc1cc(C(=O)COC(=O)c2cccc(NS(C)(=O)=O)c2)c(C)n1CC1CCCO1 (stereo not drawn) 0.794 µM [inhibitor, full curve, poor fit]
CCN1CCN(CCOc2cccc(Cl)c2Cl)CC1 11.2 µM [inhibitor, partial curve, poor fit]
Cc1ccc(NC(=O)CN(C)C(=O)CSc2nc3ccccc3c(=O)n2Cc2ccco2)cc1 28.2 µM [inhibitor, single point]
CCN(CC)C(=O)c1ccc(COc2ccc(Cl)c(C)c2)o1 12.6 µM [inhibitor, partial curve, poor fit]
Cc1nc(NC(C)c2ccccc2)sc1C(=O)Nc1ccccc1 (stereo not drawn) 0.501 µM [inhibitor, full curve, poor fit]
O=C(Cn1ccccc1=S)c1ccc(Cl)c(Cl)c1 28.2 µM [inhibitor, single point]
CCOc1ccc(NS(=O)(=O)c2ccc(C(=O)N3CCCC(C)C3)cc2)cc1 (stereo not drawn) 12.6 µM [inhibitor, partial curve, poor fit]
CCn1nccc1C(=O)Nc1ccc(C(=O)OC(C)C)cc1 11.2 µM [inhibitor, partial curve, poor fit]
CCN(CC)c1nc(N2CCN(C)CC2)nc2ccccc12 3.16 µM [inhibitor, single point]
CCC(CO)Nc1ncnc2c1cnn2-c1ccc(C)cc1 (stereo not drawn) 7.94 µM [inhibitor, partial curve, poor fit]
CN(C)C/C=C(/c1ccc(Br)cc1)c1cccnc1 7.94 µM [inhibitor, partial curve]

Activity change, negative = inhibition, inactive:
CCCc1c(-c2ccccc2F)ncn1Cc1ccccc1OC -29.9%
O=C(CN1C(=O)C2C3CCC(C3)C2C1=O)N1CCN(Cc2ccccc2)CC1 (stereo not drawn) -0.131%
NNc1nc2ccccc2nc1C(F)(F)F -6.39%
Cc1cc2nc(-c3ccc(Br)cc3)cc(C(F)(F)F)n2n1 5.62%
Cn1cc(-c2cc3n(n2)CCC(=O)N3CCCC(=O)Nc2ccc(F)cc2F)c2ccccc21 -13.1%
COc1ccc(S(=O)(=O)Nc2ccc(-c3ccc4nncn4n3)cc2)c(OC)c1 82.1%
N#Cc1c(NC(=O)c2ccc(-c3ccccc3[N+](=O)[O-])o2)sc2c1CCCC2 1.92%
CCc1nc2ccc(C(=O)NCCCn3ccnc3)cn2c1N(C)Cc1ccc(N(C)C)cc1 17.8%
O=C(CSc1n[nH]c(-c2cccs2)n1)N1CCN(S(=O)(=O)c2ccc3ccccc3c2)CC1 -5.42%
Cn1cnc(S(=O)(=O)N2CCC(C(=O)N3CCN(c4ccc(Cl)cc4)CC3)CC2)c1 4.69%
COc1cc(/C=N/NC(=O)c2ccoc2C)ccc1O 40%
COc1cc2c(-c3ccc(C)cc3)nc3c(c(C)nn3-c3ccccc3)c2cc1OC -9.13%
Cc1cc(N)ccc1-n1c(C)ccc1C 18.5%

— PubChem BioAssay AID624417 (National Center for Advancing Translational Sciences (NCATS), 2012)
